Reference: PubChem BioAssay AID485344 (National Center for Advancing Translational Sciences (NCATS), 2010)
Hit rate of the full screen: of about 340,000 compounds, about 6,900 (2%) were called active. No stated cut-off is given here; in the data, active means inhibition above about 30%; inactive means below that, where a call was filed. The entries are a selection whose mix differs from that of the whole data set. Where no call is shown, the source filed none.

Molecular target: D(2) dopamine receptor (Homo sapiens) (UniProt P14416)
Experiment: HTS Assay for Allosteric Antagonists of the Human D2 Dopamine Receptor: Primary Screen for Antagonists; further: 0% is about no effect
Conditions: HEK293 TREx D2 cells, calcium flux, dopamine EC80; at 10 µM; stronger effect = higher value
Outline: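 Overnight-induced (tetracycline, 30 C) HEK293 T-REx cells carrying force-coupled D2 receive a no-wash calcium dye, then compound, then EC80 dopamine at 180 s; signals are read kinetically throughout.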

Sequence of UniProt P14416 (P14416 whole entry, looked up): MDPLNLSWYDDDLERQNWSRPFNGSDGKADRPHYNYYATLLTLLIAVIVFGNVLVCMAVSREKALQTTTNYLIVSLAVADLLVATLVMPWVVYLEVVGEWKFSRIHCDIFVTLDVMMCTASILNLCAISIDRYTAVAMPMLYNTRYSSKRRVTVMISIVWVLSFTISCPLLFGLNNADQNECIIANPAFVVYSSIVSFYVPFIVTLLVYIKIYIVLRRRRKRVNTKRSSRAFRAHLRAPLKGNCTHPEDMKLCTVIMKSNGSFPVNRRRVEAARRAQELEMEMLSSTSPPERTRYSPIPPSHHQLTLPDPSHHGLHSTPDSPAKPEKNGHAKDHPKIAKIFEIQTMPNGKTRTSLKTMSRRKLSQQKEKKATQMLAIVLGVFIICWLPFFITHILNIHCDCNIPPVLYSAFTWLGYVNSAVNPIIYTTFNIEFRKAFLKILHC

Row | Structure (SMILES) | inhibition
1 | O=c1oc(-c2ccccc2Cl)nc2ccsc12 | active: 30.5%
2 | O=c1cc(-c2ccc(F)cc2)nc(SCc2nc(-c3ccc(Cl)cc3)no2)[nH]1 | 7.61%
3 | CCOC(=O)c1c(C)[nH]c(C)c1S(=O)(=O)NCC(=O)NCc1cccc(C)c1 | -10.2%
4 | CCOC(=O)c1ccc(CN(Cc2ccc(Br)cc2)S(=O)(=O)c2cccc(Cl)c2C)cc1 | 5.14%
5 | COc1cc(C(=O)NCC(c2ccc(Cl)cc2)N2CCOCC2)cc(OC)c1OC (stereo not given) | -1.6%
6 | COCCCNC(=O)c1ccc(Cn2c(=O)c3ccccc3n(Cc3c(C)cc(C)cc3C)c2=O)cc1 | 3.66%
7 | COc1ccc(-c2nc3n(n2)C(c2ccc(OC)c(OC)c2)C(C(=O)Nc2cccnc2)=C(C)N3)cc1 (stereo not given) | 7.15%
8 | CCCCN(CC)C(=O)C1CCCN(c2ncnc3onc(C)c23)C1 (stereo not given) | 11.1%
9 | CCN1CCN(C(c2ccc(SC)cc2)c2c(O)cc(C)n(CCOC)c2=O)CC1 (stereo not given) | -0.715%
10 | Cc1ccc(NC(=O)c2nc[nH]c2C(=O)N2CCc3ccccc3C2)cc1 | active: 63.4%
11 | Cc1ccccc1C(=O)N(Cc1sccc1C)C1CCS(=O)(=O)C1 (stereo not given) | 0.302%
12 | COc1cc(NC(=O)CCn2nc(C)c(S(=O)(=O)N3CCCCC3)c2C)cc(OC)c1OC | -5.11%
13 | COc1ccc(CCNC(=O)c2ccc(Cn3c(=O)c4ccccc4n(CC(=O)C(C)(C)C)c3=O)cc2)cc1OC | 7.25%
14 | COc1ccc(Cl)cc1NC(=O)c1c(NCc2cccnc2)sc2c1CCC(C)C2 (stereo not given) | 9.93%
15 | CC1CCCCN1CCCNC(=O)CN1C(=O)c2cccnc2Oc2ccccc21 (stereo not given) | 12.6%
16 | COc1ccccc1NC(=O)C1=C(C)Nc2c(C(=O)Nc3cccc(C)c3)cnn2C1c1ccccc1Cl (stereo not given) | 23.7%
17 | Cc1ccc(Cl)cc1NC(=O)CCCn1c(=O)c2cccn2c2cccnc21 | -0.541%
18 | COc1cccc(NC(=O)C(Cc2ccccc2)NS(=O)(=O)c2ccc3c(c2)c(=O)n(C)c(=O)n3C)c1 (stereo not given) | -27.1%
19 | Cc1cccc(CNC(=O)Cn2ccc3cc(S(=O)(=O)N4CCCCCC4)ccc32)c1 | 1.9%
20 | CCCc1cc(=O)oc2cc(C)c3c(-c4ccccc4)coc3c12 | -6.9%
21 | O=C(CN1C(=O)CSc2ccc(S(=O)(=O)N3CCCC3)cc21)Nc1cccc(Cl)c1 | -28%
22 | CCOc1ccccc1NC(=O)CSc1nccn1-c1cccc(C)c1 | 21.4%
23 | COc1ccc2c(Sc3ccc(C)cc3)c(C(=O)NC(C)C)[nH]c2c1 | -24.7%
24 | CCOc1ccc(-n2c(=O)c3c(C)c(C)sc3n(CC(=O)NCCc3ccccc3)c2=O)cc1 | 13.2%

Row | Structure (SMILES) | inhibition
25 | Cc1ccc(S(=O)(=O)C(CNC(=O)C(=O)NCCc2ccccc2)c2cccs2)cc1 (stereo not given) | 27.6%
26 | O=c1oc2ccccc2c(N2CCN(c3ccccc3F)CC2)c1CN1CCCC1 | -2.45%
27 | CCOc1ccc(C2CC(=O)c3c([nH]c(C(=O)OCC4CCCCC4)c3C)C2)cc1 (stereo not given) | 14.2%
28 | COCCCNC(=O)c1nn(-c2ccc(C)cc2)nc1CO | 13.3%
29 | CCN(CC)C(=O)C1CCN(S(=O)(=O)c2c(C)noc2/C=C/c2cccc(OC)c2)CC1 | 4.85%
30 | Cc1c(C(=O)N2CCCCC2)c(S(=O)(=O)NCc2ccc(Cl)cc2)c(C)n1C | active: 48.3%
31 | CCC(C)NC(=O)CCCc1nnc2n(CC(C)C)c(=O)c3sccc3n12 (stereo not given) | 5.32%
32 | Cc1cc2c([nH]c3ccccc32)c2c1OC(C)(C)C=C2 | active: 42.6%
33 | CCOc1ccc(NC(=O)c2cc(S(=O)(=O)NC3CCCCCC3)ccc2F)cc1 | -11.4%
34 | CCc1nnc(NC(=O)COc2ccc(N(C)S(=O)(=O)c3ccc(C)cc3)cc2)s1 | active: 39.9%
35 | COc1ccc2c(c1)CCc1c(C(=O)Nc3c(C)nn(Cc4ccccc4)c3C)noc1-2 | 12.8%
36 | Cc1ccccc1-c1noc(-c2ccc(NCc3ccco3)c([N+](=O)[O-])c2)n1 | 0.0874%
37 | CCCNC(=O)CN1C(=O)CSc2ccc(S(=O)(=O)N3CCC(C)CC3)cc21 | 0.956%
38 | CN(C)CC/C=C1\c2cc(F)ccc2CSc2ccccc21 | active: 36.8%
39 | O=C(CNCc1ccco1)Nc1ccccc1-n1cccc1 | active: 38%
40 | Cc1ccc(Nc2c(C(C)C)c(C)c(C#N)c3nc4ccccc4n23)cc1 | -14.1%
41 | CCOc1ccc(CCNC(=O)c2nn(C)c3c2CSc2ccccc2-3)cc1 | 0.0981%
42 | COc1ccc(C2N(C(=O)C(F)(F)F)C(C)CN2S(=O)(=O)c2ccc(C)cc2)cc1 (stereo not given) | active: 34.8%
43 | O=C(O)c1ccc(NC(=O)c2cc(S(=O)(=O)N3CCCCC3)c(Cl)cc2Cl)cc1 | 7.17%
44 | CCOc1ccccc1CNC(=O)CCCn1ccc2cc(S(=O)(=O)N3CCCC3)ccc21 | -9.64%
45 | Cc1ccc(Cn2cnc3nc4c(cc3c2=O)CC(C)CC4)cc1 (stereo not given) | -18.6%
46 | COc1cccc(C(=O)Nc2nnc(S(=O)(=O)N3CCCC3)s2)c1 | -20%
47 | CC(C)c1ccc(S(=O)(=O)c2cnc(SCC(=O)Nc3ccc4c(c3)OCCO4)[nH]c2=O)cc1 | -16.2%
48 | CSc1ccc(-c2nc3cccc(C)n3c2Nc2ccc(Cl)cc2)cc1 | -1.89%

Row | Structure (SMILES) | inhibition
49 | COc1ccccc1N1C(=O)N(CC(=O)C(C)(C)C)c2ccccc2S1(=O)=O | 0.186%
50 | O=C1CN(C(=O)COc2ccc(Cl)cc2Cl)C(c2ccccc2)c2cc(F)ccc2N1 (stereo not given) | -10.2%
51 | CN(C)CCNC(=O)c1ccc(-c2nn(C)c(=O)c3ccccc23)cc1 | -11.1%
52 | CCn1c(=O)cc(OCC(=O)N(C)c2cc(Cl)ccc2C)c2ccccc21 | 10.6%
53 | CC(C)(C)C1CCc2nc(NC(=O)Cc3ccccc3)sc2C1 (stereo not given) | -3.49%
54 | COC(=O)c1ccccc1NC(=O)N1CCC(N2CCN(Cc3ccc(F)cc3)C(=O)C2=O)CC1 | 2.99%
55 | COc1cc(Nc2nc3c(S(=O)(=O)c4ccc(C)c(C)c4)nnn3c3ccsc23)cc(OC)c1 | 0.0229%
56 | Cc1ccc(OCC(=O)Nc2nnc(S(=O)(=O)N3CCCCCC3)s2)cc1 | 22.4%
57 | O=C(NCc1ccc(F)cc1)C1(c2cccs2)CCOCC1 | -3.14%
58 | CCOC(=O)c1c(NC(=O)C2c3ccccc3Oc3ccccc32)sc(C)c1CC | -8.17%
59 | Oc1ccc(NCc2ccccc2OCc2ccc(Cl)cc2)cc1 | -4.14%
60 | CCOc1ccc(OCC)c(NS(=O)(=O)c2ccc3[nH]c(=O)ccc3c2)c1 | -0.171%
61 | CC(NC(=O)C1=Cc2ccccc2OC1)c1ccccc1 (stereo not given) | 14%
62 | COc1cc2nc(SCC(=O)Nc3cccc(C)c3)n3nc(CCn4c(C)nc5ccccc54)nc3c2cc1OC | -1.1%
63 | CCc1ccccc1-n1c2c(cc(-c3nc(-c4ccc(Cl)cc4)cs3)c1=O)C(=O)CC(C)(C)C2 | 5.22%
64 | CCOCCCNC(=O)c1cc2c(=O)[nH]c3ccccc3c2s1 | active: 58.4%
65 | CC(=O)N1c2ccc(S(=O)(=O)NCC3CCC(C(=O)Nc4ccc(F)cc4)CC3)cc2CC1C (stereo not given) | -0.88%
66 | O=C(COc1ccc(F)cc1)NC1CC(=O)N(c2ccc3c(c2)OCCO3)C1 (stereo not given) | 27%
67 | COc1cccc(NC(=O)C2CCN(c3cc(C)nc4c(-c5ccc(Cl)cc5)c(C)nn34)CC2)c1 | 2.13%
68 | Cc1ccc(-c2nn3c(=O)cc(CN4CCN(S(=O)(=O)c5ccc(Cl)cc5)CC4)nc3s2)cc1 | 10.9%
69 | COc1ccc(CNC(=O)c2ccc3c(c2)CCN3S(=O)(=O)c2ccc(Cl)cc2)cc1 | -13.9%
70 | CCC(C)NCCOc1cc(C)cc(C)c1C (stereo not given) | active: 50.9%
71 | Cc1cc(C)cc(NC(=O)c2ncn(-c3ccccc3)n2)c1 | -9.22%
72 | O=C(NC1CCCC1)C(c1ccc(Cl)cc1)N1CCOCC1 (stereo not given) | active: 32%

Row | Structure (SMILES) | inhibition
73 | CCc1ccc(NC(=O)N(Cc2cn(CC)c3ccccc23)C2CCCCC2)cc1 | -18.7%
74 | Cc1c(Cl)cccc1NC(=O)C(C)N(c1ccccc1)S(C)(=O)=O (stereo not given) | -3.49%
75 | O=S(=O)(c1ccccc1)c1nc(-c2ccccc2)oc1N1CCN(c2cccc(Cl)c2)CC1 | 4.7%
76 | O=C(CSCc1cnn(-c2ccccc2)c1-n1cccc1)NCc1ccccc1Br | 10%
77 | CCc1ccc(NC(=O)COCc2cc(-c3ccc(F)cc3)on2)cc1 | -16.6%
78 | Cn1c(=O)cc(OCC(=O)N2CCN(c3ccc(F)cc3)CC2)c2ccccc21 | 9.39%
79 | CC(C)c1ccc(NC(=O)C(NS(=O)(=O)c2ccc3c(c2)CCC(=O)N3)c2ccccc2)cc1 (stereo not given) | 8.19%
80 | CCOc1ccccc1Nc1ncnc2c1c(-c1ccccc1)cn2-c1ccc(OC)cc1 | -24.2%
81 | Cc1ccc2[nH]cc(C(=O)CN3CCN(c4ccccn4)CC3)c2c1 | active: 34.1%
82 | CCOCN(C(=O)Cn1c(CC(C)C)nc2ccccc21)c1c(C)cccc1CC | -4.57%
83 | O=C1c2[nH]nc(-c3ccccc3O)c2C(c2ccc(Cl)cc2)N1CCc1ccccc1 (stereo not given) | 2.67%
84 | CCOC(=O)c1c(C)oc2c1c(C(c1ccccc1)N1CCOCC1)c(O)c1ccccc12 (stereo not given) | active: 57.4%
85 | CCCCn1c(N)c(N(CCC(C)C)C(=O)c2cccc(S(=O)(=O)N3CCN(C)CC3)c2)c(=O)[nH]c1=O | active: 34%
86 | COc1cc(OC)cc(-c2cc3nc(C)c(CCC(=O)Nc4ccc(F)c(Cl)c4)c(C)n3n2)c1 | 8.28%
87 | CCOc1ccccc1NC(=O)C1=C(C)Nc2ncnn2C1c1ccccn1 (stereo not given) | -4.57%
88 | CCOC(=O)CCn1cnc2onc(-c3ccccc3Cl)c2c1=O | 12.2%
89 | COC(=O)c1ccc(Nc2ncnc3c2cnn3-c2ccccc2)cc1 | 1.01%
90 | COc1cc(Cl)c(C)cc1NS(=O)(=O)c1c(C)nc2sccn2c1=O | 12.8%
91 | CC(=O)N1CCN(C(=O)c2cccc(S(=O)(=O)Nc3c(C)n(C)n(-c4ccccc4)c3=O)c2)CC1 | active: 51.1%
92 | COc1ccc(NC(=O)CN(c2ccccc2OC)S(C)(=O)=O)c(OC)c1 | -0.549%
93 | COc1cc(NC(=O)CCc2c(C)nc3c4c(C)cc(C)nc4nn3c2C)cc(OC)c1 | 6.82%
94 | Cc1cc(C)cc(NC(=O)CCCn2nc(C)c3c(C)n(-c4ccccc4)nc3c2=O)c1 | 5.69%
95 | COc1cc(-c2nnc(SCC(=O)Oc3ccc(C)cc3C)o2)cc(OC)c1OC | 27.5%
